Measured values taken from patent US20250051755A1 (Dana-Farber, published 2025).
Values belong to the binder of their own block, whether it stands above or below them.

Assays:
Her2 = molecular target: T1, Her2 (UniProt P04626); assay: flow cytometry on Her2 induced OVCAR8 cells, loss of binding on Her2 knockdown in SKOV3; immunoprecipitation of Her2 from SKOV3 extracts
T1 construct: whole, on cells; Also precipitated from SKOV3 whole cell extracts; also called Erbb2

recombinant human BCAM [1] = molecular target: T2, recombinant human BCAM (human, UniProt P50895 32-547, limits assumed); assay: ELISA on recombinant BCAM; given as affinity
T2 construct: Bought protein coated on ELISA plates; also called recombinant BCAM (Sino); untreated recombinant human BCAM
T2 sequence (looked up): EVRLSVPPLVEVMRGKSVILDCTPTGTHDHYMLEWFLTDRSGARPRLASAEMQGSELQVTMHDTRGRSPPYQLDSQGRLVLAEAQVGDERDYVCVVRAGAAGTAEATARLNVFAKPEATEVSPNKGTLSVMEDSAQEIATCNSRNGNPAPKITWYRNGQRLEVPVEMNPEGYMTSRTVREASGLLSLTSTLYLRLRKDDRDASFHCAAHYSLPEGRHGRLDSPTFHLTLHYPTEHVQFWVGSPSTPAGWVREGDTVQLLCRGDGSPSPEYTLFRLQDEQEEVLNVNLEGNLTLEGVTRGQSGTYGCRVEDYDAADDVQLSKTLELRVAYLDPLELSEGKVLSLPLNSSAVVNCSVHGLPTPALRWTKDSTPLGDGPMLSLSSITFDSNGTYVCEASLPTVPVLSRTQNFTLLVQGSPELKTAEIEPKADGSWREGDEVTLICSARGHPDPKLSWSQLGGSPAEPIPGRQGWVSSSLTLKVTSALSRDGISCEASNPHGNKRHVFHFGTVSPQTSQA

BCAM [2] = molecular target: T3, BCAM (human, UniProt P50895 32-628); assay: flow cytometry on live cells; given as affinity
T3 construct: whole, on cells; also called Basal Cell Adhesion Molecule; human BCAM
T3 sequence (looked up): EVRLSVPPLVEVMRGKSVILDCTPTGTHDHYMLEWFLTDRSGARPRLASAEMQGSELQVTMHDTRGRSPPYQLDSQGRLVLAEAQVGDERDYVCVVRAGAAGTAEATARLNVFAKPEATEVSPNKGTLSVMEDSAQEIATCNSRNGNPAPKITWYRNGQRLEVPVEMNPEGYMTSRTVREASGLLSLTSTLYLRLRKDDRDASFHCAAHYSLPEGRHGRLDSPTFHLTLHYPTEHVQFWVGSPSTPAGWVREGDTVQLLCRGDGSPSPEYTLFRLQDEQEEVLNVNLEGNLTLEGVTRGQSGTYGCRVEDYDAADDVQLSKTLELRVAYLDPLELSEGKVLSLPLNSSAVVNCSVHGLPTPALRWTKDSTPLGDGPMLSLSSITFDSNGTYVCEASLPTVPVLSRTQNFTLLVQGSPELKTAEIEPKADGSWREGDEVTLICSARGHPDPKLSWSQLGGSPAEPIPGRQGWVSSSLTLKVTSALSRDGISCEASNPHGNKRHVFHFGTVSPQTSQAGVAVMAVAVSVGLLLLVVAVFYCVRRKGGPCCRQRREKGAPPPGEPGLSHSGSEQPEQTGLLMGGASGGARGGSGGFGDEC

BCAM [3] = molecular target: T3, BCAM; assay: flow cytometry binding curve on live Kuramochi cells
recombinant human BCAM [4] = molecular target: T2, recombinant human BCAM; assay: ELISA on coated recombinant BCAM; given as affinity
BCAM [5] = molecular target: T3, BCAM; assay: flow cytometry on live Kuramochi cells; given as affinity

binding result (Her2): binds
B1: a-Her2 (1A12) VHH-hIgG1-Fc (Fc fusion)
chain: QVQLQESGGGLVQAGGSLRLSCAASGRTISNAFMGWYHQAPGEQREFVATISTTGTTNYRNSVKGRFTISRDNAKNTVYLQMNNLKPEDMGTYYCRHFGYDVWGQGTQVTVSS[letters of human IgG1 Fc not shown]
notes: VHH fused to human IgG1-Fc; also called 1A12-hIgG1-Fc; Ab a-Her2 (1A12)

binding result (Her2): binds
B2: a-Her2 (1A100) VHH-hIgG1-Fc (Fc fusion)
chain: QVQLQESGGGLVQAGDSLKLSCAASGDTFSRYAMAWFRQAPGKEREFVAAVSWSGGITHYADSLKGRFTISRDSAKNTVYLQMNSLKPDDTAIYYCTQDTIPGGAAREFRGYWGQGTQVTVSS[letters of human IgG1 Fc not shown]
notes: VHH fused to human IgG1-Fc; also called Ab a-Her2 (1A100); cluster A antibody

EC50 (recombinant human BCAM [1]): ~4 nM
EC50 (BCAM [2]): 7 nM
EC50 (BCAM [3]): 7.2 nM
EC50 (recombinant human BCAM [4]): 3.5 nM
EC50 (BCAM [5]): ~7 nM
B3: a-BCAM VHH-hIgG1-Fc fusion construct (6N2_22) (Fc fusion)
chain: QVQLVESGGGLVQPGGSLRLSCAASGFTFSSYAMSWVRQAPGKGPEWVSAINSGGGSTSYADSVKGRFTISRDNAKNTLYLQMNSLKPEDTAVYYCAKSWTVRIGQIYHHPTDYWGQGTQVTVSS[letters of human IgG1 Fc not shown]
notes: also called 6N2_22-hIgG1-Fc; anti-BCAM VHH

binding result (Her2): binds
B4: a-Her2 (1A51) VHH-hIgG1-Fc (Fc fusion)
chain: QVQLQESGGGLVQAGGSLRLSCAGSGRTFSLYSMGWFRQSAGKAREFVASINWNGEVTEYADSVKGRFIISKANANKTMSLQMNSLKFEDTGVYYCAAAPRFESTWLADYWGQGTQVTVSS[letters of human IgG1 Fc not shown]
notes: VHH fused to human IgG1-Fc; also called Ab a-Her2 (1A51); cluster A antibody
